Test results from PubChem BioAssay AID686978 (National Center for Advancing Translational Sciences (NCATS), 2013).
About 64,000 (15%) of roughly 420,000 compounds were called active. The inconclusive results got no clear call from the source; some entries with a clear call stand among them for comparison. Calls come from the whole dose curve; as a rule, active = well fitted inhibition curve with a large enough effect; inconclusive = small, poorly fitted or top-dose-only effect; inactive = flat fitted curve, though single readings scatter. No potency is given beside an inconclusive call; the fits are too rough.
% is set by controls: 0 for no effect and ±100 for the full control effect; potency is the fitted concentration of half-maximal effect; tags give direction and shape of the fitted curve.

Test: qHTS for Inhibitors of human tyrosyl-DNA phosphodiesterase 1 (TDP1): qHTS in cells in absence of CPT; note: nearly all actives have a fitted effect of over 55% in size
Settings: DT40 Tdp1-/- hTDP1 cells, no CPT, ATP luminescence, 48 h; activity change, negative = growth inhibition: at 46.2 µM (top of the series) unless noted
Method in brief: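 Growth kinetics read by CellTiter-Glo luminescence after ≥48 hr at 37 °C. Cells: DT40 Tdp1-/- stably carrying human TDP1, 400 per well, compound exposure in the absence of CPT (DMSO vehicle).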
In the case of `CC(C)(C(=O)N1CCC1(C)C(=O)NS(=O)(=O)c1cccc(Cl)c1)c1ccccc1` (stereo not drawn), the “activity change, negative = growth inhibition” value is reported as inactive: -6.39%. With `CCN(CC(=O)Nc1c(F)cccc1F)C(=O)c1ccc(-c2ccccc2)cc1` the Potency was inconclusive [inhibitor, partial curve]. In the case of `CCSc1nnc(-c2cc(Br)ccc2NC(C)=O)c(=O)[nH]1`, the “activity change, negative = growth inhibition” value is reported as inactive: 14.9%. For `O=C1CN(C(=O)Nc2ccccc2C(F)(F)F)C(c2ccccc2)c2c(sc3c2CCCC3)N1` (stereo not drawn), the Potency was active: 18.4 µM. For `C/C(=C\C(=O)O)CC(=O)O`, the Potency was inconclusive [inhibitor, partial curve]. For `CCCCN1C(=O)C(CC(=O)NCc2cccc3ccccc23)CC(C(=O)N(C)C)=C1C` (stereo not drawn), the Potency was inconclusive [inhibitor, single point]. With `C=CCOc1ccc(/C=C/C(=O)OCC(=O)NCc2cccc(OC)c2)cc1` the Potency was inconclusive [inhibitor, single point]. With `COc1c(C)cc(S(=O)(=O)NCc2ccccn2)c(C)c1C` the “activity change, negative = growth inhibition” value was inactive: 12%. With `Cc1cc(C(=O)OCC(=O)c2ccc3c(c2)NC(=O)CO3)c2ccccc2n1` the “activity change, negative = growth inhibition” value was inactive: -1.33%. In the case of `CCN1C(=O)C2(c3ccccc31)c1c(oc3ccc(F)cc3c1=O)C(=O)N2CCCOC` (stereo not drawn), the “activity change, negative = growth inhibition” value is reported as inactive: -7.81%. In the case of `O=[N+]([O-])c1ccc(Oc2ccc(C(F)(F)F)cn2)cc1`, the “activity change, negative = growth inhibition” value is reported as inactive: 3.62%. In the case of `CC(C)Oc1ccc(CNC(=O)c2ccc(Cn3c(=O)c4cccn4c4cccnc43)cc2)cc1`, the Potency is reported as active: 0.461 µM. With `COc1ccccc1NC(=O)CSC1CC(=O)N(c2ccc3c(c2)OCO3)C1=O` (stereo not drawn) the Potency was active: 6.51 µM. For `CN(C)S(=O)(=O)c1cccc(C(=O)Nc2cc(Cl)ccc2O)c1`, the Potency was inconclusive [inhibitor, single point]. With `CCCc1cnc2c(c1SCc1ccc(C(F)(F)F)cc1)c(=O)n(C)c(=O)n2C` the Potency was active: 20.6 µM. In the case of `CC(C)(Oc1ccc(Cl)cc1)C(=O)NCC(c1ccco1)N1CCCCC1` (stereo not drawn), the Potency is reported as active: 18.4 µM. In the case of `N#CC1=C(Nc2ccccc2)SC=C(c2ccc(Br)cc2)N=C1N1CCOCC1`, the Potency is reported as inconclusive [inhibitor, single point]. In the case of `CC(C)(C)OC(=O)N1CCC(c2c(C(=O)NCC3CCN(C4CCCC4)C3)cnn2-c2cccc(Cl)c2)CC1` (stereo not drawn), the Potency is reported as inconclusive [inhibitor, single point]. In the case of `O=c1cc[nH]c2c1ccc1cccnc12`, the Potency is reported as inconclusive [inhibitor, partial curve]. For `O=C(NCc1ccco1)c1cccnc1-c1nc2ccccc2s1`, the Potency was active: 29.1 µM. With `CCC(=O)Nc1ccc(C(=O)CSc2nnc(-c3ccc(O)cc3)n2CC2CCCO2)cc1OC` (stereo not drawn) the Potency was inconclusive [inhibitor, single point]. In the case of `CCC1Sc2ccc(S(=O)(=O)CCC(=O)N3CCc4ccccc43)cc2NC1=O` (stereo not drawn), the Potency is reported as inconclusive [inhibitor, single point]. In the case of `COCCNc1ncnc2ccc(-c3ccccc3C)cc12`, the Potency is reported as active: 20.6 µM. In the case of `CCNC(=S)N(Cc1cc2c(C)ccc(C)c2[nH]c1=O)C1CCCC1`, the Potency is reported as inconclusive [inhibitor, single point]. For `CCc1ccc(-c2cc(C(=O)O)c3ccccc3n2)s1`, the Potency was inconclusive [inhibitor, full curve, poor fit]. For `CNC(=S)N1N=C(c2ccc(C)cc2)CC1c1ccc(Cl)cc1` (stereo not drawn), the Potency was active: 10.3 µM. For `COc1ccc(-c2nnn(Cc3nc(N)nc(N4CCCCC4)n3)n2)cc1`, the Potency was inconclusive [inhibitor, partial curve]. With `COC(=O)c1cc(O)c(O)c(O)c1` the Potency was inconclusive [inhibitor, partial curve]. In the case of `COc1ccccc1N1CCN(C(=O)Cn2ncc3c(=O)oc4ccc(C)cc4c32)CC1`, the Potency is reported as inconclusive [inhibitor, single point]. With `CC(C)Cn1c(N)c(C(=O)COC(=O)C2CCCN2C(=O)c2cccs2)c(=O)n(C)c1=O` (stereo not drawn) the Potency was inconclusive [inhibitor, single point]. For `CCOC(=O)C1CCCN(C(=O)c2cccc3ccccc23)CC1` (stereo not drawn), the “activity change, negative = growth inhibition” value was inactive: -29.7%. For `Cc1ccc(S(=O)(=O)Cc2ccc(C(=O)N3CCC(C)CC3)cc2)cc1`, the Potency was inconclusive [inhibitor, single point]. In the case of `C=C(C)c1cccc(C(C)(C)NC(=O)NCc2ccncc2)c1`, the “activity change, negative = growth inhibition” value is reported as inactive: 0.723%. In the case of `O=C1/C(=C2/NCCN2C2CC(=O)N(c3ccccc3)C2=O)CC/C1=C\c1ccccc1` (stereo not drawn), the “activity change, negative = growth inhibition” value is reported as inactive: -2.65%. For `CN(C)S(=O)(=O)N(CC(=O)Nc1ccc(S(=O)(=O)N2CCCC2)cc1)c1ccccc1`, the activity change, negative = growth inhibition was inconclusive: -37.9% [inhibitor]. With `CCOc1cccc(C(=O)NC(=S)Nc2ccc(Cl)cc2C(=O)O)c1` the Potency was inconclusive [inhibitor, partial curve]. With `CCOc1ccc(CCNC(=O)c2ccc3ccccc3n2)cc1OCC` the Potency was active: 8.2 µM. For `Cc1cccc(OCc2n[nH]c(=S)n2C2CCCCC2)c1`, the Potency was inconclusive [inhibitor, single point]. With `CNC(=O)c1ccsc1NC(=O)c1ccc(S(=O)(=O)N2CCOCC2)cc1` the Potency was active: 23.1 µM. For `Cc1ccc(NCC(=O)Nc2ccc(Br)cc2)cc1F`, the “activity change, negative = growth inhibition” value was inactive: -36%. In the case of `CCCN(CCC)CCCNC(=S)Nc1ccc2nc3n(c(=O)c2c1)CCCCC3`, the Potency is reported as inconclusive [inhibitor, single point]. In the case of `CC(Sc1nncs1)C(=O)Nc1ccc(S(=O)(=O)Nc2ncccn2)cc1` (stereo not drawn), the “activity change, negative = growth inhibition” value is reported as inactive: -3.56%. With `NC1=NC2(CCCCC2)N=C(Nc2ccc(Br)cc2)N1` the Potency was inconclusive [inhibitor, single point]. For `O=C1c2ccccc2NC(c2ccc3c(c2)OCO3)N1O` (stereo not drawn), the Potency was inconclusive [inhibitor, single point]. For `CCN1C(=O)/C(=C/c2ccc(C)o2)N(C)C1=S`, the “activity change, negative = growth inhibition” value was inactive: 3.76%. With `Cc1ccc(N(Cc2cccs2)C(=O)COc2cccc(C)c2)cc1` the Potency was active: 23.1 µM. In the case of `COc1ccc(/C=C/C(=O)c2ccc(O)cc2)cc1`, the Potency is reported as inconclusive [inhibitor, single point]. For `Cc1cccc2c1NC(=O)C21N2CCCC2C(C(=O)c2ccc3ccccc3c2)C12C(=O)Nc1ccccc12` (stereo not drawn), the Potency was active: 25.9 µM.
